Assay results: ChEMBL document CHEMBL4888484, “Replenishing the malaria drug discovery pipeline: Screening and hit evaluation of the MMV Hit Generation Library 1 (HGL1) against asexual blood stage Plasmodium falciparum ,using a nano luciferase reporter read-out” (2022)
Hit rate of the full screen: of about 150,000 compounds, about 540 (0.36%) showed an effect of 50% or more. The list shows a part of the results.

These compounds were tested on Plasmodium falciparum (assay: Primary screen in NF54 nanoGlo assay, in single point, at 2uM, 72h; a lower Z score goes with more inhibition). Settings: timepoint 72 hour.
Assay type: functional, Erythrocyte

| SMILES | % Inhibition [%] | Z score |
| --- | --- | --- |
| O=S(=O)(Nc1ccccc1CC(c1c[nH]c2ccccc12)c1c[nH]c2ccccc12)c1ccc(Cl)cc1 | -11 | 1.84 |
| O=C(CCCN1C(=O)[C@H](c2ccccc2)Oc2cccnc21)N1CCC(Cc2nncn2CC2CC2)CC1 | -7 | 1.24 |
| Cc1cccnc1CNS(=O)(=O)CC12CCC(CC1)CC2 | -8 | 1.28 |
| O=C1N[C@H]2C[C@@H](C(=O)NC[C@H]3O[C@H](CCOc4cc(C5CCCC5)ccc41)CC[C@@H]3O)N(CC1CC1)C2 | 6 | -0.72 |
| C[C@@H](Cc1ccc2c(c1)CCO2)NC(=O)C1CCN(S(C)(=O)=O)CC1 | 0 | -0.07 |
| Cc1sc(-c2ccccc2F)nc1C(=O)NCCc1cnc[nH]1 | 2 | -0.34 |
| Cc1cc(Br)cc2c1CN(CC(=O)N1CCNC(=O)C1)CC2 | -10 | 1.73 |
| COC(=O)c1ncn2c1CO[C@H](c1ccc(F)cc1)C2 | -1 | 0.07 |
| CCC[C@H](NC(=O)c1cc[nH]c1C)C(=O)N1CCc2sccc2C1 | -2 | 0.22 |
| CN(C)c1noc(CN[C@@H]2COCCN(C(=O)OC(C)(C)C)C2)n1 | 2 | -0.44 |
| CCCN1C(=O)Cc2c(C)nc(-c3cccc(Cl)c3)nc21 | -2 | 0.31 |
| O=C(Nc1ccc(NC(=O)C(F)(Cl)C(F)(F)F)cc1)C(F)(Cl)C(F)(F)F (stereo not given) | 1 | -0.09 |
| OCCOc1cccc(-c2nccn2-c2ccc(-n3cccn3)cc2)c1 | -7 | 1 |
| Cc1nnc(N2CCN(C(=O)[C@@H]3CCCO3)CC2)c(C#N)c1C | -8 | 0.73 |
| O=C(Nc1ccccc1C(F)(F)F)N[C@H]1CCCS(=O)(=O)C1 | -8 | 1.53 |
| O=C(c1cc(S(=O)(=O)N2CCC[C@H](C(=O)N3CCCC3)C2)c[nH]1)N1CCCCCC1 | -3 | 0.65 |
| Cc1cccc2c1C(=O)NCCN2C(=O)C1CC1c1ccc2ccccc2c1 (stereo not given) | -8 | 1.09 |
| CCCn1nc(C)cc1NC(=O)[C@@H]1CC=CCC1 | -8 | 0.78 |
| COCCN1CC(=O)N[C@H]2CN(S(=O)(=O)N3CCCC3)C[C@@H]2OCc2cccc(c2)Oc2cc(ccc2OC)CCC1=O | -4 | 0.68 |
| COc1ccc2c(c1)C(C(=O)Nc1ccccc1C(O)c1ccccn1)CCC2 (stereo not given) | -1 | 0.14 |

| SMILES | % Inhibition [%] | Z score |
| --- | --- | --- |
| O=C1OCCCN1c1ccc(-c2noc(CC3CCOCC3)n2)cc1 | -23 | 2.96 |
| O=C1NCCCCC1Oc1ccc(OC(=O)C2C3CCCCC32)cc1 (stereo not given) | 30 | -3.34 |
| Cc1cccc(-c2noc(N3CCOCC3)c2CN(CCN(C)C)C(=O)c2ccco2)c1 | 11 | -1.51 |
| CC(C)c1nccc(C(=O)N2CCC[C@H](c3[nH]ncc3-c3ccccc3)C2)n1 | 1 | -0.19 |
| CCC1(CNC(=O)Nc2ccc(Oc3ccc(C)nn3)cc2)CC1 | -7 | 0.65 |
| COc1ccc(CN(C(=O)c2c(C)noc2C)C2CC2)c(OC)c1 | -26 | 3.81 |
| CC(C)n1ccc(C(=O)Nc2ccc(C(=O)N3CCCC[C@@H]3C)cc2)n1 | 6 | -0.87 |
| Cc1ccc(CNC(=O)N2CC[C@](O)(C3CC3)[C@@H](C)C2)cc1 | 0 | -0.06 |
| CCN(Cc1cncn1CCOC)C[C@H]1CCCO1 | 2 | -0.39 |
| COc1ncc(Cl)c(N2CCN([C@H]3CCS(=O)(=O)C3)CC2)n1 | -5 | 0.82 |
| COc1ccc(S(=O)(=O)N2C[C@H](C)Oc3c(F)cccc32)cn1 | -11 | 1.25 |
| CC(C)n1nccc1S(=O)(=O)N[C@@H](C)c1cccnc1 | 4 | -0.44 |
| COCC(=O)N1CCC[C@H](c2nc(C)nn2CCO)C1 | 16 | -2.07 |
| CC(C)c1nccn1CC(=O)NC(C1CC1)C1CC1 | 1 | -0.12 |
| Cc1noc(C)c1C(=O)Cn1ccnc1C(C)C | -7 | 0.57 |
| CC(=O)N1CCc2sc(S(=O)(=O)NCc3ccc(C)c(C)c3)cc2C1 | 9 | -1.71 |
| CCOc1ccccc1C(=O)NCc1nc2cccnc2n1C | -18 | 2.64 |
| CC1CCCC(CC(=O)NC2CCCNC2=O)C1 (stereo not given) | -2 | 0.29 |
| C[C@H](Oc1ccccc1)C(=O)N1CC(Cn2cncn2)C1 | -11 | 1.43 |
| COCc1cc(N2C[C@H]3CC[C@@H](C2)N(Cc2cscn2)C3=O)ncn1 | -15 | 2.91 |
